Experimental data published in a collection of fitness landscapes (doi:10.1016/j.celrep.2020.107928).
Over roughly 81,000 sequences, “one-hybrid fitness for binding parS DNA” has its median near -0.17; the highest 2% begin near 0.51. The list shows a part of the results.

B1: Caulobacter ParB omega fusion; a variant is named by its letters at X, in order, B8GW30 (parent)
chain: MESVVVGEPGMSEGRRGLGRGLSALLGEVDAAPAQAPGEQLGGSREAPIEILQRNPDQPRRTFREEDLEDLSNSIREKGVLQPILVRPSPDTAGEYQIVAGERAWRAAQRAGLKTVPIMVRELDDLAVLEIGIIENVQRADLNVLEEALSYKVLMEKFERTQENIAQTIGKSXSHVANXMRLLXLPDEVQSYLVSGELTAXHARAIAAAADPVALAKQIIEGGLSVRETEALARKAPNLSAGKSKGGRPPRVKDTDTQALESDLSSVLGLDVSIDHRGSTGTLTITYATLEQLDDLCNRLTRGI

Variants of: B1
Assay: one-hybrid fitness for binding parS DNA (scaled: cognate 1, non-cognate 0); higher = stronger binding
Details: with parS DNA site
How it was run: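 Values were rescaled so that cognate is 1 and non-cognate is 0. Each is a fitness, the log change in a variant's read ratio to wild type from Illumina reads of plasmids before and after selection, with three replicate libraries pooled and variants under 10 reads dropped. Selection of the Caulobacter ParB libraries, four specificity codons randomised, used E. coli USO with a HIS3 reporter, site 19 bp from the promoter, on M9-minus-histidine with 0.1 mM IPTG and 5 mM 3-AT for 48 hours at 37°C.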

Variant	one-hybrid fitness for binding parS DNA
PNYS	≤ 0.2
DHWC	≤ 0.2
MWPR	≤ 0.2
NRMS	≤ 0.2
MYPK	≤ 0.2
TTGE	≤ 0.2
DTRV	≤ 0.2
IKMS	≤ 0.2
STVG	≤ 0.2
LTQI	≤ 0.2
EMKP	≤ 0.2
VTHC	≤ 0.2
LRNR	≤ 0.2
EVAC	≤ 0.2
HSIR	≤ 0.2
GCNT	≤ 0.2
PRME	≤ 0.2
DSEC	≤ 0.2
YLFE	≤ 0.2
GRDS	≤ 0.2
PHIC	≤ 0.2
MHRR	≤ 0.2
GVWK	≤ 0.2
DAFN	≤ 0.2

Variant	one-hybrid fitness for binding parS DNA
MFKR	≤ 0.2
TDST	≤ 0.2
ITLR	≤ 0.2
HTCT	≤ 0.2
LGNC	≤ 0.2
DYSG	≤ 0.2
YKPV	≤ 0.2
QRLW	≤ 0.2
ASLY	≤ 0.2
SCAA	≤ 0.2
NDER	≤ 0.2
RYFD	≤ 0.2
PYSF	≤ 0.2
EGMD	≤ 0.2
QCMA	≤ 0.2
TIEM	≤ 0.2
YRCR	≤ 0.2
RIIP	≤ 0.2
LMSC	≤ 0.2
EVDG	≤ 0.2
QCGD	≤ 0.2
HREC	≤ 0.2
RWLH	≤ 0.2
YRSN	≤ 0.2

Variant	one-hybrid fitness for binding parS DNA
ITKT	≤ 0.2
KTGY	≤ 0.2
QWQC	≤ 0.2
MYAR	≤ 0.2
GLCS	≤ 0.2
LVRW	≤ 0.2
RNRN	0.371
STTE	≤ 0.2
AHPT	≤ 0.2
PCDL	≤ 0.2
ITRW	≤ 0.2
TLTM	≤ 0.2
RWHR	≤ 0.2
NLPS	≤ 0.2
LGTS	≤ 0.2
SYGI	≤ 0.2
VYSV	≤ 0.2
MTTL	≤ 0.2
LHTY	≤ 0.2
AQHC	≤ 0.2
QHHG	≤ 0.2
SERK	≤ 0.2
FCDR	≤ 0.2
FMQS	≤ 0.2

Variant	one-hybrid fitness for binding parS DNA
VRGI	≤ 0.2
PPHA	≤ 0.2
VGQG	≤ 0.2
QNFY	≤ 0.2
PNQC	≤ 0.2
FPPV	≤ 0.2
TPFS	≤ 0.2
NLMS	≤ 0.2
NAVI	≤ 0.2
THEC	≤ 0.2
AWVG	≤ 0.2
KPTR	≤ 0.2
QKND	≤ 0.2
SRPD	≤ 0.2
FLDD	≤ 0.2
LSKI	≤ 0.2
TTHR	≤ 0.2
MAPM	≤ 0.2
SQRI	≤ 0.2
AHWS	≤ 0.2
LYLN	≤ 0.2
RPPW	≤ 0.2
IMPI	≤ 0.2
IIEY	≤ 0.2

Variant	one-hybrid fitness for binding parS DNA
WSDR	≤ 0.2
SLGF	≤ 0.2
NPCL	≤ 0.2
YAKC	≤ 0.2
QSLV	≤ 0.2
ISGW	≤ 0.2
RACP	≤ 0.2
QEKT	≤ 0.2
KPSW	≤ 0.2
SYTL	≤ 0.2
RPFV	≤ 0.2
ANLR	≤ 0.2
EAFT	≤ 0.2
LDIR	≤ 0.2
QAHR	≤ 0.2
FRAN	≤ 0.2
EGRR	≤ 0.2
PSNI	≤ 0.2
GEDK	≤ 0.2
PQRM	≤ 0.2
TMMC	≤ 0.2
MDVC	≤ 0.2
RMTF	0.268
KHEC	≤ 0.2

Variant	one-hybrid fitness for binding parS DNA
QAWR	≤ 0.2
CAGR	≤ 0.2
SYIK	≤ 0.2
RGDG	0.496
NYYW	≤ 0.2
AAYT	≤ 0.2
AVMD	≤ 0.2
SKGD	≤ 0.2
LWNE	≤ 0.2
RCQM	0.303
KLLS	≤ 0.2
QAQW	≤ 0.2
KVKG	≤ 0.2
LSVT	≤ 0.2
YTAM	≤ 0.2
RKHY	0.375
MAVC	≤ 0.2
EQLF	≤ 0.2
PSKP	≤ 0.2
MSRW	≤ 0.2
PDSN	≤ 0.2
AGLM	≤ 0.2
ADCV	≤ 0.2
KWTC	≤ 0.2

Variant	one-hybrid fitness for binding parS DNA
VDTS	≤ 0.2
PSRV	≤ 0.2
ILLR	≤ 0.2
IPWS	≤ 0.2
MNKC	≤ 0.2
ISQR	≤ 0.2
ELTQ	≤ 0.2
TCEC	≤ 0.2
RPLE	≤ 0.2
LKPR	≤ 0.2
EGPL	≤ 0.2
CAKR	≤ 0.2
LTRM	≤ 0.2
RPDN	≤ 0.2
LSIF	≤ 0.2
ETRI	≤ 0.2
PEPT	≤ 0.2
RVHK	≤ 0.2
YATT	≤ 0.2
DLGS	≤ 0.2
EAKW	≤ 0.2
HLFG	≤ 0.2
TSHD	≤ 0.2
LRLA	≤ 0.2

Variant	one-hybrid fitness for binding parS DNA
RGPH	≤ 0.2
EAHT	≤ 0.2
VLPK	≤ 0.2
LVNC	≤ 0.2
WWAK	≤ 0.2
ATGR	≤ 0.2
NDLV	≤ 0.2
LIKH	≤ 0.2
SCYH	≤ 0.2
QITI	≤ 0.2
ETEC	≤ 0.2
QWSW	≤ 0.2
ALNP	≤ 0.2
DLYA	≤ 0.2
YPLH	0.22
PFRV	≤ 0.2
PMNT	≤ 0.2
TRNL	≤ 0.2
YCMF	≤ 0.2
SIIA	≤ 0.2
VRDR	≤ 0.2
YQRR	≤ 0.2
GPRI	≤ 0.2
RKGM	0.262

Variant	one-hybrid fitness for binding parS DNA
VSVS	≤ 0.2
LSLI	≤ 0.2
QHRC	≤ 0.2
HNTL	≤ 0.2
HLNT	≤ 0.2
WWHS	≤ 0.2
PTFH	≤ 0.2
VMRA	≤ 0.2
NRSF	≤ 0.2
KTML	≤ 0.2
YCNR	≤ 0.2
LIVS	≤ 0.2
SQRY	≤ 0.2
MKRV	≤ 0.2
WEPT	≤ 0.2
TGHP	≤ 0.2
HLMR	≤ 0.2
ENGS	≤ 0.2
QKRH	≤ 0.2
HFPF	≤ 0.2
PGPQ	≤ 0.2
AMVT	≤ 0.2
PHCN	≤ 0.2
HASC	≤ 0.2

Variant	one-hybrid fitness for binding parS DNA
CETL	≤ 0.2
SVNL	≤ 0.2
YFQV	≤ 0.2
QWMA	≤ 0.2
AFMG	≤ 0.2
FERS	≤ 0.2
QVKG	≤ 0.2
QLSD	≤ 0.2
LPLM	≤ 0.2
DRSV	≤ 0.2
WIDE	≤ 0.2
RRHR	≤ 0.2
CMAT	≤ 0.2
ISAW	≤ 0.2
LGCI	≤ 0.2
RHEV	≤ 0.2
PPSR	≤ 0.2
YMNG	≤ 0.2
TKCD	≤ 0.2
PHPR	≤ 0.2
ELAE	≤ 0.2
YPNG	≤ 0.2
DASE	≤ 0.2
QVHH	≤ 0.2

Variant	one-hybrid fitness for binding parS DNA
ETTI	≤ 0.2
GAPW	≤ 0.2
TCWG	≤ 0.2
KSLE	≤ 0.2
IKEY	≤ 0.2
WHYT	≤ 0.2
QKLQ	≤ 0.2
DASA	≤ 0.2
REHD	≤ 0.2
RMDA	0.572
PSGP	≤ 0.2
CFRM	≤ 0.2
ASGY	≤ 0.2
VTES	≤ 0.2
VFFC	≤ 0.2
QKNC	≤ 0.2
SKKL	≤ 0.2
PSRT	≤ 0.2
ETVV	≤ 0.2
ARIA	≤ 0.2
TKTV	≤ 0.2
RFPY	≤ 0.2
PVRS	≤ 0.2
AQPC	≤ 0.2

Variant	one-hybrid fitness for binding parS DNA
GCYG	≤ 0.2
VPFV	≤ 0.2
ANRG	≤ 0.2
DRSN	≤ 0.2
TFAC	≤ 0.2
RKCG	0.971
LMFW	≤ 0.2
APSG	≤ 0.2
INIC	≤ 0.2
LYHA	≤ 0.2
DDFR	≤ 0.2
WVVM	≤ 0.2
RGYS	0.586
WGCV	≤ 0.2
PSGR	≤ 0.2
TVME	≤ 0.2
RNCL	≤ 0.2
SNDC	≤ 0.2
RNYR	≤ 0.2
RMAD	0.207
SSGD	≤ 0.2
RSNF	0.224
VANT	≤ 0.2
NLHI	≤ 0.2

Variant	one-hybrid fitness for binding parS DNA
WKLG	≤ 0.2
CIVT	≤ 0.2
FVTG	≤ 0.2
HPAS	≤ 0.2
MTET	≤ 0.2
PHSN	≤ 0.2
RWFV	≤ 0.2
QWGC	≤ 0.2
MNHC	≤ 0.2
FIWV	≤ 0.2
PAIK	≤ 0.2
WVPS	≤ 0.2
RISK	≤ 0.2
ICDG	≤ 0.2
LQAE	≤ 0.2
LSRN	≤ 0.2
HDAW	≤ 0.2
DQTC	≤ 0.2
